Read counts are not given, so values of variants with three or more changes are uncertain.
B1: LINE1-full (parent)
chain: UACGUAGGUGGUUUUCCCCUGAUAGUGCUAAGGGGGCCUGGAAGUUUGGACUGGGCAGAGCUCAACACAGCGUGGCAAAGUGGCUGUGGCUAGACUGCCUCUCUGGAUUCCUCGUCACUCAGCAGGGCAUCUCUGAGAGAAAUGCC

Variants of: B1
Assay: self-cleavage, relative activity (ratio to wild type); higher = more cleavage; in vitro, sequencing; the parent is a self-cleaving ribozyme

Row | Variant | self-cleavage
1 | UACGUAGGUGGUUUUCCCCUGAUAGUGCUAAGGGGGCCUGGAAGUUUGGACUGGGCAGAGCUCAACACAGCGUGGCAAAGUGGCUGUGGCUAGACUGCCUCUCUGGAUUCCCCGUCACACAGCAGGGCAUCUCCGAGAGAAAUGCC [U112C U119A U134C] | 2.1
2 | UACGUAGGUGGUUUUCCCCUGAUAGUGCUAAGGGGGCCUGGAAGUUUGGACUGGGCAGAGCUCAACACAGCGUGGCAAAGUGGCUGUGGCUAGACUGCCUCUCUGGAUUCCCCGUCACUCAGCAGGGCAUCGCUGUGAGAAAUGCC [U112C U132G A136U] | 2.91
3 | UACGUAGGUGGUUUUCCCCUGAUAGUGCUAAGGGGGCCUGGAAGUUUGGACUGGGCAGAGCUCAACACAGCGUGGCAAAGUGGCUGUGGCUAGACUGCCUCUCUGGAUUCCUGGUCACUCAGCGGGGCAUCUCUGGGAGGAAUGCC [C113G A124G A136G A140G] | 1.8
4 | UACGUAGGUGGUUUUCCCCUGAUAGUGCUAAGGGGGCCUGGAAGUUUGGACUGGGCAGAGCUCAACACAGCGUGGCAAAGUGGCUGUGGCUAGACUGCCUCUCUGGAUUCCUUGUCUCUCAGCAGGGCGUCUCUGAGAGAAAUGCC [C113U A117U A129G] | 1.89
5 | UACGUAGGUGGUUUUCCCCUGAUAGUGCUAAGGGGGCCUGGAAGUUUGGACUGGGCAGAGCUCAACACAGCGUGGCAAAGUGGCUGUGGCUAGACUGCCUCUCUGGAUUCCUUGUCACUCAGCAGGGCAUCCCUGAGAGGAAUGCC [C113U U132C A140G] | 0.17
6 | UACGUAGGUGGUUUUCCCCUGAUAGUGCUAAGGGGGCCUGGAAGUUUGGACUGGGCAGAGCUCAACACAGCGUGGCAAAGUGGCUGUGGCUAGACUGCCUCUCUGGAUUCCUCAUCGCUCAGCAGGGCACCUCUGAGAGAGAUGCC [G114A A117G U130C A141G] | 1.49
7 | UACGUAGGUGGUUUUCCCCUGAUAGUGCUAAGGGGGCCUGGAAGUUUGGACUGGGCAGAGCUCAACACAGCGUGGCAAAGUGGCUGUGGCUAGACUGCCUCUCUGGAUUCCUCACCACUCAGCAGGGCAUCCCUGAGAGAAAUGCC [G114A U115C U132C] | 1.8
8 | UACGUAGGUGGUUUUCCCCUGAUAGUGCUAAGGGGGCCUGGAAGUUUGGACUGGGCAGAGCUCAACACAGCGUGGCAAAGUGGCUGUGGCUAGACUGCCUCUCUGGAUUCCUCAUCACUCAGCAGGGCACCACUGAGAGAAAUGCC [G114A U130C U132A] | 1.3
9 | UACGUAGGUGGUUUUCCCCUGAUAGUGCUAAGGGGGCCUGGAAGUUUGGACUGGGCAGAGCUCAACACAGCGUGGCAAAGUGGCUGUGGCUAGACUGCCUCUCUGGAUUCCUCGACACUCUGCUGGGCAUCUCUGAGAGAAAUGCC [U115A A121U A124U] | 1.13
10 | UACGUAGGUGGUUUUCCCCUGAUAGUGCUAAGGGGGCCUGGAAGUUUGGACUGGGCAGAGCUCAACACAGCGUGGCAAAGUGGCUGUGGCUAGACUGCCUCUCUGGAUUCCUCGACACUCAGCGGGGCAUCUCUGAGAGAAGUGCC [U115A A124G A142G] | 1.07
11 | UACGUAGGUGGUUUUCCCCUGAUAGUGCUAAGGGGGCCUGGAAGUUUGGACUGGGCAGAGCUCAACACAGCGUGGCAAAGUGGCUGUGGCUAGACUGCCUCUCUGGAUUCCUCGACACUCAGCAGGGCGUCUCUGAGAGAAAUGCU [U115A A129G C146U] | 1.94
12 | UACGUAGGUGGUUUUCCCCUGAUAGUGCUAAGGGGGCCUGGAAGUUUGGACUGGGCAGAGCUCAACACAGCGUGGCAAAGUGGCUGUGGCUAGACUGCCUCUCUGGAUUCCUCGACACUCAGCAGGGCAUCUCUGAGAGGAGUGCC [U115A A140G A142G] | 1.59
13 | UACGUAGGUGGUUUUCCCCUGAUAGUGCUAAGGGGGCCUGGAAGUUUGGACUGGGCAGAGCUCAACACAGCGUGGCAAAGUGGCUGUGGCUAGACUGCCUCUCUGGAUUCCUCGACACUCAGCAGGGCAUCUCAGAGAGGAAUGCC [U115A U134A A140G] | 0.55
14 | UACGUAGGUGGUUUUCCCCUGAUAGUGCUAAGGGGGCCUGGAAGUUUGGACUGGGCAGAGCUCAACACAGCGUGGCAAAGUGGCUGUGGCUAGACUGCCUCUCUGGAUUCCUCGCCCCUCAGCAGGGCAUCUCUGAGAGGAAUGCC [U115C A117C A140G] | 2.35
15 | UACGUAGGUGGUUUUCCCCUGAUAGUGCUAAGGGGGCCUGGAAGUUUGGACUGGGCAGAGCUCAACACAGCGUGGCAAAGUGGCUGUGGCUAGACUGCCUCUCUGGAUUCCUCGCCUCACAGCAGGGCAUCUCUGAGGGAAGUGCC [U115C A117U U119A A138G A142G] | 0
16 | UACGUAGGUGGUUUUCCCCUGAUAGUGCUAAGGGGGCCUGGAAGUUUGGACUGGGCAGAGCUCAACACAGCGUGGCAAAGUGGCUGUGGCUAGACUGCCUCUCUGGAUUCCUCGCCACUCAGCAGGGCUUCUCUGAGAGAAACGCC [U115C A129U U143C] | 1.68
17 | UACGUAGGUGGUUUUCCCCUGAUAGUGCUAAGGGGGCCUGGAAGUUUGGACUGGGCAGAGCUCAACACAGCGUGGCAAAGUGGCUGUGGCUAGACUGCCUCUCUGGAUUCCUCGCCACCCAGCAGGGCAUCUCUGAGGGAAAUGCC [U115C U119C A138G] | 1.72
18 | UACGUAGGUGGUUUUCCCCUGAUAGUGCUAAGGGGGCCUGGAAGUUUGGACUGGGCAGAGCUCAACACAGCGUGGCAAAGUGGCUGUGGCUAGACUGCCUCUCUGGAUUCCUCGCCACUCAGCAGGGCACCUCUGAGAGAAGUGCC [U115C U130C A142G] | 1.21
19 | UACGUAGGUGGUUUUCCCCUGAUAGUGCUAAGGGGGCCUGGAAGUUUGGACUGGGCAGAGCUCAACACAGCGUGGCAAAGUGGCUGUGGCUAGACUGCCUCUCUGGAUUCCUCGCCACUCAGCAGGGCACCCCUGAGAGAAAUGCC [U115C U130C U132C] | 0.92

Source: the RNAGym collection of RNA variant scans (doi:10.7554/elife.90254)
